# In paper PMC12820563, “FoxP3 forms a head-to-head dimer in vivo and stabilizes its multimerization on adjacent microsatellites”:
# The list shows a part of the results.
# Biological target: T1, MBP-FoxP1dN (Mus musculus, UniProt P58462 326-579)
# T1 sequence: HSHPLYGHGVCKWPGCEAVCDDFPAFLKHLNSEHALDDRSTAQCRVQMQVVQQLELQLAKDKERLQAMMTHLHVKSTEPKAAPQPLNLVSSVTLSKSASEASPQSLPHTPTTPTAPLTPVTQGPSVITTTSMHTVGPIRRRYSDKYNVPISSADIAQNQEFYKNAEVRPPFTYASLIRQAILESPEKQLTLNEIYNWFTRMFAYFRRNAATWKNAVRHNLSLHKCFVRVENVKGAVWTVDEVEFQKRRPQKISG
# Assay: PD-seq (MBP pull-down with sequencing); 20 mM Tris-HCl pH 7.5, 100 mM NaCl, 1.5 mM MgCl2, 0.4 uM protein, 0.1 uM dsDNA library, 30 min, room temperature, amylose pull-down; high values mean tight binding
# Conditions: protein: recombinant; tags: His6-MBP; chain copies: 2; dsDNA, one strand shown
# In short: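 His6-MBP-tagged mouse FoxP3 or FoxP1 fragment lacking the N-terminus, expressed in E. coli, was mixed at 0.4 µM with 0.1 µM Klenow-filled double-stranded degenerate DNA library. Incubation was 30 min at room temperature in Tris pH 7.5 buffer with NaCl and MgCl2. Complexes were caught on amylose resin and washed three times; DNA was released with proteinase K, PCR-barcoded and Illumina-sequenced. Binding is reads-per-million enrichment, pull-down over input, with replicates pooled.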
row,Sequence,binding signal
1,GATGATTGTTCTCCCAGCTGATGAATTTTTGTGTTCGAGTAAACAAATTTTCCTAATCTTTCTGTTCAAGCGCCATCTAC,1.95 RPM ratio (pull-down/input)
2,GATGATTGTTCTCCCAGCTGATGAATTTATGTTCTCGAGTAAACAAATTTTCCTAATCTTTCTGTTCAAGCGCCATCTAC,1.33 RPM ratio (pull-down/input)
3,GATGATTGTTCTCCCAGCTGATGAATTTCAGGTGTCGAGTAAACAAATTTTCCTAATCTTTCTGTTCAAGCGCCATCTAC,0.789 RPM ratio (pull-down/input)
4,GATGATTGTTCTCCCAGCTGATGAATTAACGTTCTCGAGTAAACAAATTTTCCTAATCTTTCTGTTCAAGCGCCATCTAC,0.931 RPM ratio (pull-down/input)
5,GATGATTGTTCTCCCAGCTGATGAATTTATTGACTCGAGTAAACAAATTTTCCTAATCTTTCTGTTCAAGCGCCATCTAC,1.85 RPM ratio (pull-down/input)
6,GATGATTGTTCTCCCAGCTGATGAATTGGTCAGATCGAGTAAACAAATTTTCCTAATCTTTCTGTTCAAGCGCCATCTAC,0.849 RPM ratio (pull-down/input)
7,GATGATTGTTCTCCCAGCTGATGAATTAGCCAGGTCGAGTAAACAAATTTTCCTAATCTTTCTGTTCAAGCGCCATCTAC,0.814 RPM ratio (pull-down/input)
8,GATGATTGTTCTCCCAGCTGATGAATTGGTGATTTCGAGTAAACAAATTTTCCTAATCTTTCTGTTCAAGCGCCATCTAC,1.17 RPM ratio (pull-down/input)
9,GATGATTGTTCTCCCAGCTGATGAATTGGGCAATTCGAGTAAACAAATTTTCCTAATCTTTCTGTTCAAGCGCCATCTAC,0.936 RPM ratio (pull-down/input)
10,GATGATTGTTCTCCCAGCTGATGAATTTGAATGCTCGAGTAAACAAATTTTCCTAATCTTTCTGTTCAAGCGCCATCTAC,1.14 RPM ratio (pull-down/input)
11,GATGATTGTTCTCCCAGCTGATGAATTTCCTCACTCGAGTAAACAAATTTTCCTAATCTTTCTGTTCAAGCGCCATCTAC,0.81 RPM ratio (pull-down/input)
12,GATGATTGTTCTCCCAGCTGATGAATTTATTAAATCGAGTAAACAAATTTTCCTAATCTTTCTGTTCAAGCGCCATCTAC,1.39 RPM ratio (pull-down/input)
13,GATGATTGTTCTCCCAGCTGATGAATTTCTTCCTTCGAGTAAACAAATTTTCCTAATCTTTCTGTTCAAGCGCCATCTAC,0.851 RPM ratio (pull-down/input)
14,GATGATTGTTCTCCCAGCTGATGAATTATTCGTTTCGAGTAAACAAATTTTCCTAATCTTTCTGTTCAAGCGCCATCTAC,1.01 RPM ratio (pull-down/input)
15,GATGATTGTTCTCCCAGCTGATGAATTTAGTCCCTCGAGTAAACAAATTTTCCTAATCTTTCTGTTCAAGCGCCATCTAC,0.912 RPM ratio (pull-down/input)
16,GATGATTGTTCTCCCAGCTGATGAATTGGTTCGGTCGAGTAAACAAATTTTCCTAATCTTTCTGTTCAAGCGCCATCTAC,0.883 RPM ratio (pull-down/input)

row,Sequence,binding signal
1,GATGATTGTTCTCCCAGCTGATGAATTGTCCCTCTCGAGTAAACAAATTTTCCTAATCTTTCTGTTCAAGCGCCATCTAC,0.967 RPM ratio (pull-down/input)
2,GATGATTGTTCTCCCAGCTGATGAATTTGCCCAGTCGAGTAAACAAATTTTCCTAATCTTTCTGTTCAAGCGCCATCTAC,0.855 RPM ratio (pull-down/input)
3,GATGATTGTTCTCCCAGCTGATGAATTCGGTAGTTCGAGTAAACAAATTTTCCTAATCTTTCTGTTCAAGCGCCATCTAC,0.877 RPM ratio (pull-down/input)
4,GATGATTGTTCTCCCAGCTGATGAATTCTGTAAGTCGAGTAAACAAATTTTCCTAATCTTTCTGTTCAAGCGCCATCTAC,0.922 RPM ratio (pull-down/input)
5,GATGATTGTTCTCCCAGCTGATGAATTTATAATTTCGAGTAAACAAATTTTCCTAATCTTTCTGTTCAAGCGCCATCTAC,1.19 RPM ratio (pull-down/input)
6,GATGATTGTTCTCCCAGCTGATGAATTACCGATATCGAGTAAACAAATTTTCCTAATCTTTCTGTTCAAGCGCCATCTAC,1.02 RPM ratio (pull-down/input)
7,GATGATTGTTCTCCCAGCTGATGAATTTGAGAGCTCGAGTAAACAAATTTTCCTAATCTTTCTGTTCAAGCGCCATCTAC,0.742 RPM ratio (pull-down/input)
8,GATGATTGTTCTCCCAGCTGATGAATTCCTTTCATCGAGTAAACAAATTTTCCTAATCTTTCTGTTCAAGCGCCATCTAC,0.854 RPM ratio (pull-down/input)
9,GATGATTGTTCTCCCAGCTGATGAATTCCGTGAGTCGAGTAAACAAATTTTCCTAATCTTTCTGTTCAAGCGCCATCTAC,0.819 RPM ratio (pull-down/input)
10,GATGATTGTTCTCCCAGCTGATGAATTCTACAAATCGAGTAAACAAATTTTCCTAATCTTTCTGTTCAAGCGCCATCTAC,1.12 RPM ratio (pull-down/input)
11,GATGATTGTTCTCCCAGCTGATGAATTCGTGGAGTCGAGTAAACAAATTTTCCTAATCTTTCTGTTCAAGCGCCATCTAC,0.812 RPM ratio (pull-down/input)
12,GATGATTGTTCTCCCAGCTGATGAATTATTCAAATCGAGTAAACAAATTTTCCTAATCTTTCTGTTCAAGCGCCATCTAC,1.11 RPM ratio (pull-down/input)
13,GATGATTGTTCTCCCAGCTGATGAATTCCAGAGTTCGAGTAAACAAATTTTCCTAATCTTTCTGTTCAAGCGCCATCTAC,0.778 RPM ratio (pull-down/input)
14,GATGATTGTTCTCCCAGCTGATGAATTAAACCACTCGAGTAAACAAATTTTCCTAATCTTTCTGTTCAAGCGCCATCTAC,0.958 RPM ratio (pull-down/input)
15,GATGATTGTTCTCCCAGCTGATGAATTACTGGAGTCGAGTAAACAAATTTTCCTAATCTTTCTGTTCAAGCGCCATCTAC,0.91 RPM ratio (pull-down/input)
